The values that follow come from publication PMC7819943, “Rice protein-binding microarrays: a tool to detect cis-acting elements near promoter regions in rice”.

The list shows a part of the results.

The assay addresses T1, OsWOX13 (Oryza sativa, UniProt Q5QMM3 1-267).
T1 sequence: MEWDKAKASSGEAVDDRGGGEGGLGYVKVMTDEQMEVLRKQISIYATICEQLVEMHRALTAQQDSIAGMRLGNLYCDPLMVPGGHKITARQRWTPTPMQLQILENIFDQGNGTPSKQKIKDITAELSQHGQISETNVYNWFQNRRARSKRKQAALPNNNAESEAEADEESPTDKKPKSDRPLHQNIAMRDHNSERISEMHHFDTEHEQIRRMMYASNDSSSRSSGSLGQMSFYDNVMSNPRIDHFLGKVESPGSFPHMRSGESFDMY
The assay is described as follows: protein-binding microarray (RPBM); PBS, 2% BSA, 51.3 ng/ul salmon testes DNA, 50 uM zinc acetate, 200 nM TF, 25 C, 1 h; high values mean tight binding. Conditions: protein: recombinant; tags: N-terminal polyhistidine and DsRed monomer fusion (pET32a); label: CyDye5-dUTP incorporated in the synthesized complementary strand; 3' TTTTT single-stranded linker to array surface; dsDNA, one strand shown. In short, it runs like this: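 An Axon 4000B scanner gave the binding signal as per-feature fluorescence intensity in arbitrary units. This followed washing of a custom Agilent array that had been incubated for 1 h at 25 °C with 200 nM protein in PBS, 2% BSA, salmon testes DNA and 50 µM zinc acetate. The proteins were transcription factors fused at the N-terminus to polyhistidine and DsRed, expressed in E. coli BL21-CodonPlus and purified on Ni–NTA.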
On to “ATTTCAAATTTAAATTTGAATTATATCCGATTTCAAATTTCGGAGTCACCTAGTGCAG”, for which the binding signal was 27500 fluorescence intensity (a.u.).

With “ACAAACTATTCCTAATTAATAGATAACTTGCCATGCCGCACGGAGTCACCTAGTGCAG”, the binding signal is 14500 fluorescence intensity (a.u.).

“CCCTTTTAATTTCCTGTAAACCAGTCCAGCCCAATAGGTACGGAGTCACCTAGTGCAG”: the binding signal was 7920 fluorescence intensity (a.u.).

Consider “GTCTTAACATAATAAATACCACAGTCTAGCTTTTATGATACGGAGTCACCTAGTGCAG”, for which the binding signal was 3300 fluorescence intensity (a.u.).

For “TTTGATTGTCTGGGCTATTAAATAGTCCTTCACAATCTTGCGGAGTCACCTAGTGCAG”, the binding signal was 42400 fluorescence intensity (a.u.).

“TTATAATATAATATTTTGATAATTTTATCCAAATTTTGGACGGAGTCACCTAGTGCAG”: the binding signal was 4490 fluorescence intensity (a.u.).

Turning to “AGTAAGGGGAGATGATTGATTGCGCTATCGATCTCCCACCCGGAGTCACCTAGTGCAG”, the binding signal was 40400 fluorescence intensity (a.u.).

With “ATATGAAATTTAAAATTAGTTATTAGCAAGATGCAGTTACCGGAGTCACCTAGTGCAG”, the binding signal was 4430 fluorescence intensity (a.u.).

Regarding “TAACAAAACAAATTACAGATTCTGTCTGTAAACTGCGAGACGGAGTCACCTAGTGCAG”, the binding signal is 4160 fluorescence intensity (a.u.).

Take “TTGTAAATGACTGATTTGGATGTGAATTAATCGTTGTTGTCGGAGTCACCTAGTGCAG”: the binding signal was 28400 fluorescence intensity (a.u.).

Regarding “TTCAGTCAATCCACACTGTAATCCCCATTGCTAGTATCTCCGGAGTCACCTAGTGCAG”, the binding signal was 4410 fluorescence intensity (a.u.).

As for “TCTAAGATTGAATTGCACTTTGACTATCTTTCATTATCAACGGAGTCACCTAGTGCAG”, the binding signal is 35100 fluorescence intensity (a.u.).

For “GATAATGATTGGGCTTCTAAATAATGGGTAAGACTTGTCTCGGAGTCACCTAGTGCAG”, the binding signal was 35000 fluorescence intensity (a.u.).

Regarding “TTAACAATGATGATTTATCTCTTATGTATTTGTATAATTTCGGAGTCACCTAGTGCAG”, the binding signal was 6330 fluorescence intensity (a.u.).

“GTTTAATTTCCTAATTTTGCTCAGGTCTACAACTCTAAATCGGAGTCACCTAGTGCAG”: the binding signal was 18000 fluorescence intensity (a.u.).

Take “CCCAAGACTGATATGGATGAAATATACGATCATGCCATATCGGAGTCACCTAGTGCAG”: the binding signal was 3360 fluorescence intensity (a.u.).

As to “ATTTACATTAATTTATTAGGGTTTTATTTTGCTCTTACACCGGAGTCACCTAGTGCAG”, the binding signal is 13000 fluorescence intensity (a.u.).

On to “GAACTTTACCGAATTTGTAAATTAGATGTAAACTCATTTTCGGAGTCACCTAGTGCAG”, for which the binding signal is 3580 fluorescence intensity (a.u.).

Turning to “ATCTTGATTGATGTTATTTAAATTATCTTGGTGTTGGTGCCGGAGTCACCTAGTGCAG”, the binding signal is 48800 fluorescence intensity (a.u.).

Regarding “ATACACAATTGATTAATGGAGCCATCTATTAACACCAGCCCGGAGTCACCTAGTGCAG”, the binding signal is 32100 fluorescence intensity (a.u.).

Turning to “TGTGATTGACACCAACATATACTCGATTCCAACAATCCAACGGAGTCACCTAGTGCAG”, the binding signal was 44300 fluorescence intensity (a.u.).

For the sequence “TGCTAATGTTGATTACATTCACCACTATCACTGGATCAAACGGAGTCACCTAGTGCAG”, the binding signal is 9420 fluorescence intensity (a.u.).

As for “TACATAATTAACCTTTGGTATCACCTGTCATACACACATGCGGAGTCACCTAGTGCAG”, the binding signal was 17500 fluorescence intensity (a.u.).

As for “TGACATAAACTGAATTTCATCCATCATCCACCAGCACTCGCGGAGTCACCTAGTGCAG”, the binding signal is 3460 fluorescence intensity (a.u.).

On to “ATTTAATTGTTACGAATACAATGGTGTAATCGGATCATAGCGGAGTCACCTAGTGCAG”, for which the binding signal is 24400 fluorescence intensity (a.u.).

Consider “GCCACCTGATTGGAGTTTCTATTACAGTGCTCAATAGAAACGGAGTCACCTAGTGCAG”, for which the binding signal was 25700 fluorescence intensity (a.u.).

In the case of “CCTGTGATTGCTCGGTAATATTAACTTGATCGCTTGCACACGGAGTCACCTAGTGCAG”, the binding signal was 37600 fluorescence intensity (a.u.).

Turning to “AAATAAATTAATATAACTTATAAAGCAGCTTTTGTATAATCGGAGTCACCTAGTGCAG”, the binding signal is 13600 fluorescence intensity (a.u.).

In the case of “ATATAAATTTTGGCTCCTAATTGACATCAATCCAAACACACGGAGTCACCTAGTGCAG”, the binding signal is 25900 fluorescence intensity (a.u.).

Regarding “CTTAATTTGTCACCTAGTCTGAAATTCGCCCTGAACCACACGGAGTCACCTAGTGCAG”, the binding signal is 26900 fluorescence intensity (a.u.).

For “GTATTGATTTATTTTGGAAAGGGAGTGTGTGCGAGTTGTCCGGAGTCACCTAGTGCAG”, the binding signal is 24900 fluorescence intensity (a.u.).

Consider “CATATAAGTTATAATATAATTATGCTCTAACTGCATTATACGGAGTCACCTAGTGCAG”, for which the binding signal is 8730 fluorescence intensity (a.u.).

On to “AGCCTAATTAAATCTTACACACAAAGAAACCAAAATTGGACGGAGTCACCTAGTGCAG”, for which the binding signal is 7080 fluorescence intensity (a.u.).

In the case of “TATATTGATTTTGTTTGTTGCATATATACTGCAGCCATCTCGGAGTCACCTAGTGCAG”, the binding signal is 24900 fluorescence intensity (a.u.).

As for “AAGATAGATTAATATATGATATATCTTTTCGCAAATATGCCGGAGTCACCTAGTGCAG”, the binding signal was 32600 fluorescence intensity (a.u.).

On to “TAATTATACATATTACGACTAATTTGCGAGACGAATCTTTCGGAGTCACCTAGTGCAG”, for which the binding signal is 4180 fluorescence intensity (a.u.).

“TGGTTTGTATTAATTTGTTCATTTCCGATTCAATTTTATTCGGAGTCACCTAGTGCAG”: the binding signal was 4690 fluorescence intensity (a.u.).

Take “TATGCTTTGATTGAGCCCCTGGAGAAGAGAGGAACAGAGGCGGAGTCACCTAGTGCAG”: the binding signal is 35400 fluorescence intensity (a.u.).

As to “ATTGATGACTAATTGAGATCGATCGATAGATAGTATAAGACGGAGTCACCTAGTGCAG”, the binding signal is 11700 fluorescence intensity (a.u.).

For “AACTGTTGATGGGACAGATCCATCCAACAGGTTTGTGCTCCGGAGTCACCTAGTGCAG”, the binding signal is 3860 fluorescence intensity (a.u.).

For the sequence “ATATTTTAAAATTTAAATTTTATATAGTTTAATCAAAGTCCGGAGTCACCTAGTGCAG”, the binding signal was 7820 fluorescence intensity (a.u.).

On to “TCAATGTATAATTACAATGTAAGTATAAGTAATTTATGGTCGGAGTCACCTAGTGCAG”, for which the binding signal is 7260 fluorescence intensity (a.u.).
